Measurements as given in ChEMBL document CHEMBL5308541, “MAIP: An Open-Source Tool to Enrich High-Throughput Screening Output and Identify Novel, Druglike Molecules with Antimalarial Activity” (ACS Med Chem Lett, 2023).
The campaign covered roughly 150,000 compounds. About 540 (0.36%) showed an effect of 50% or more. Some of the results follow.

System: Plasmodium falciparum
Assay: Primary screen in NF54 nanoGlo assay, in single point, at 2uM, 72h; a lower Z score goes with more inhibition
Type: functional, Erythrocyte
Conditions: timepoint 72 hour

Compound	% Inhibition [%]	Z score
Cc1nc(N2CCN(CC(=O)NC3CCCCC3)CC2)c2cc[nH]c2n1	-11	2.32
O=C(NC1CCN(c2ccccn2)CC1)c1cc(=O)c2ccccc2[nH]1	-6	1.21
CC(C)(C)OC(=O)N1CCC[C@H](Nc2ccn(CC(F)F)n2)CC1	3	-0.72
CCNc1ncc(C(=O)N[C@@H](C)c2ccc3cc(OC)ccc3c2)cn1	17	-2.97
Nc1nccnc1C(=O)Nc1cccc(-c2ccc3c(c2)CCO3)c1	0	0.09
Clc1ccc2c(N3CCCC[C@H]3c3nc4ccccc4o3)ncnc2c1	-14	3.07
NC(=O)C[C@H](Nc1cc(-n2ccnc2)ncn1)C1CCCCC1	-17	3.02
CN(C)c1nc2c(c(NCc3cc4ccc(F)cc4[nH]c3=O)n1)CCNC2	-12	2.5
CCCCc1c(C)nc(N)nc1N1CCC(CN2CCN(C)CC2)CC1	23	-3.49
CCN(CCCN[C@H]1CCCN(C)c2ccccc21)S(C)(=O)=O	-2	0.35
C[C@@H](C(=O)NCc1cc[nH]n1)N1CCN(C)CC1	-7	1.3
Clc1cnc(NCC(c2ccco2)c2ccco2)nc1	-8	1.27
CC(C)(C)c1cc2c(N3CCC[C@H](NC4CCOCC4)C3)nccn2n1	-8	1.14
O=C([C@H]1CC(=O)N(c2[nH]nc3ccccc23)C1)N1CCC(c2noc3cc(F)ccc23)CC1	-11	1.71
Cc1ccc2cc(CNc3ccc(N4CCOCC4)cn3)ccc2n1	-17	3.44
CC(C)(O)CN(C(=O)C1CCN(c2noc3ccc(Cl)cc23)CC1)C1CC1	5	-0.77
COc1cccc([C@H](C)N2CCN(Cc3ccc4c[nH]nc4c3)CC2)c1	-11	1.88
CC(C)N1CCC[C@H](C(=O)N(C)CC2CCN(CCc3ccccc3F)CC2)C1	-6	1.03
CCCn1cc(NC(=O)NCCCc2c(C)noc2C)nn1	-7	1.45
Cc1n[nH]c(CNC(=O)NCc2ccc(C3CC3)cc2F)n1	-12	2.3
Cc1cc(C)cc(Nc2nc(Nc3cc(C)cc(C)c3)nc(N[C@@H](C)C(=O)Nc3ccc(F)cc3)n2)c1	5	-0.88

Compound	% Inhibition [%]	Z score
O=C(NCc1cccc(-c2ccccc2)c1)[C@@H]1CCCN1C1CCNCC1	0	-0.07
CO[C@H]1C[C@@H](CN(C)c2cc(NCC3CC3)ncn2)N(C)C1	-7	1.05
Nc1nccc(N2CCc3onc(-c4ccc(-c5ccccc5)cc4)c3C2)n1	10	-1.51
c1ccc2sc(NCCc3noc(C4CC4)n3)nc2c1	1	-0.15
Cc1ccc(-n2nnnc2N2CC3CCC2C3)cc1 (stereo unspecified)	-5	0.78
Cn1cc(NC(=O)CN2CCC(N3CCC[C@H](C(=O)N4CCCC4)C3)CC2)cn1	-5	1.11
O=c1[nH]c2ccccc2n1C1CCN(C[C@]2(O)CCCNCC2)CC1	3	-0.5
Nc1nc(N2CCC3(CC2)CC(=O)N(Cc2ccccc2)C3)c2cn[nH]c2n1	-1	0.18
FC1(F)CNCC[C@@H]1CNc1cc(N2CCOCC2)ncn1	-2	0.42
OCC12CCCNC1CCN(Cc1cccc(-c3ccccn3)c1)C2 (stereo unspecified)	4	-0.62
C[C@H]1CNCCN1C(=O)c1cccc(-c2cc(N3CCOCC3)nc(N)n2)c1	-7	1.3
Cc1ccc(NC(=O)CNC(=O)c2cc(F)cc(F)c2)c(N(C)C)n1	-5	1.16
C[C@](O)(CNS(=O)(=O)c1c[nH]c2ncccc12)C(c1ccccc1)c1ccccc1	4	-0.63
Cc1c(NC(=O)C2CC2C2CCOCC2)n[nH]c1C(C)C (stereo unspecified)	-5	0.75
CN1CCC(c2nc(C(=O)N3CC[C@H](Nc4ncccn4)C3)c[nH]2)CC1	7	-1.12
COc1ccc(CNCCCn2ccnc2C)c(OC[C@@H](O)CN2CCN(C)CC2)c1	-4	0.81
CN1CCN([C@H]2CCN(c3cc(NCCO)ncn3)C2)CC1	-6	1.28
c1cc(O[C@H]2CCNC2)cc(CNc2nccn3cnnc23)n1	3	-0.56
N#Cc1cnccc1N[C@H]1CCN(CCN2CCOCC2)C1	-16	2.46
CN(Cc1cccc2[nH]ccc12)C1CCN(CCn2cccn2)CC1	-1	0.24
CC(C)CNC(=O)c1cc(F)c(NC(=O)COC(C)C)c(F)c1	-7	1

Compound	% Inhibition [%]	Z score
Cc1nc(CN(C)Cc2cccc3cnccc23)n(C)c1C	-4	0.86
O=C(N1CCCC1)N1CCC(Nc2ncnc3cc[nH]c23)CC1	-2	0.34
COc1ccc2cc(CNc3cc(C#N)c4ccccc4n3)ccc2c1	7	-1.24
COc1ccc2nc(C)cc(NCc3cccc(NC(=O)c4ccco4)c3)c2c1	93	-18.52
COc1ccccc1-c1cnnc(Nc2ccc(OCC(C)(C)Cl)cc2)c1	-6	1.21
CC[C@H]1CN(c2ncnc3[nH]ccc23)CCN1CCOC	1	-0.12
N#Cc1cc2c(nc1N1CC(O)C(Cc3ccnc4ccccc34)C1)CCCC2 (stereo unspecified)	-4	0.78
CN(C)CCN1CCC(CNCc2cc(F)ccc2F)CC1	2	-0.36
Cc1ccc(CNC(=O)NC2(C)CCC3(CC2)OCCO3)cn1	-3	0.56
COc1ccc([C@@H](NC(=O)c2cc(C)nc3cc(F)ccc23)C2CC2)cc1	-13	2.59
CCN(CCN(C)C)C(=O)c1ccc(N2CCNCC2)c(NS(=O)(=O)c2cc(C)c(C)cc2C)c1	-9	1.5
CC(C)(C)OC(=O)N1CCC(Nc2nc(-c3cnccn3)cs2)CC1	-1	0.19
c1ccc(C2CC(Nc3ccc(-c4cnco4)cc3)CCN2)cc1 (stereo unspecified)	-8	1.63
COc1ccc2[nH]cc(CCNc3ncncc3-c3nc(-c4ccccc4F)no3)c2c1	4	-0.77
O=C1C[C@H](NCc2ccc3c[nH]nc3c2)CN1CCN1CCOCC1	0	0.02
CN1CCC(Cc2nc(-c3n[nH]c4ccccc34)n(C)n2)CC1	-4	0.7
COCC[C@H](C)NCC1(c2ccc(Cl)cc2)CC1	-4	0.62
Nc1nc2c(s1)CN(c1ccc(-c3ccc(F)cc3)nn1)CC2	1	-0.12
Cc1noc(-c2cccnc2NCC2CCN(c3ccncc3)CC2)n1	-2	0.24
O[C@H]1CCCC[C@@H]1Nc1ccc(-c2cccc(OCc3ccccc3)c2)cn1	-12	2.05
Cc1cc(NC[C@H]2CCCCN2C)nc2cc(F)ccc12	-12	2.15

Compound	% Inhibition [%]	Z score
COC[C@H](C)NC1CCN(c2ccc(-c3cc4ccccc4[nH]3)cc2)CC1	-1	0.2
C[C@H]1CCCCN1CCCNc1ccccn1	8	-1.43
O=C(NCc1nc2ccccc2[nH]1)c1csc(-c2cc3ccccc3[nH]2)n1	10	-1.52
CN1CCC(N2CC[C@H](N(C)C(=O)c3cnc4[nH]nnc4c3)C2)CC1	1	-0.13
CN(C)c1nc(N2CCN(c3ncnc4ccccc34)CC2)ncc1F	-10	1.79
CCOc1cccc(CN2CC[C@H](Oc3ccccc3-c3nc(C4CCOCC4)no3)C2)c1	-9	1.51
CC1(C)CN(CCNC(=O)C[C@]2(O)CCCNC2)CCO1	1	-0.12
OC1CN(c2nc(NCCCNc3cccnc3)cc([C@H]3CCOC3)n2)C1	-12	2.31
C[C@@H](c1ccccc1O)n1cnc(-c2ccccc2)c1-c1cccc(O)c1	-10	2.11
COCCc1noc(-c2ccc(N3CCc4c([nH]c5ccccc45)C3)nc2)n1	-16	2.42
CCc1nccn1CC(=O)N1CCC[C@](C)(c2ccccc2)C1	-3	0.49
Cc1nnc(COc2cccc3c2CCCC3=O)s1	-5	0.75
C[C@H](NCc1c[nH]c2nccnc12)c1cc(F)ccc1N1CCC(O)CC1	3	-0.39
COc1ccc(F)cc1CNC1CCCC(S(C)(=O)=O)C1 (stereo unspecified)	1	-0.2
COc1cc2nc(-c3ccc(F)c4cccnc34)nc(N)c2cc1OC	96	-14.63
Cc1cccc(NC[C@H]2CCCN2C(=O)Cc2c[nH]c3ncccc23)n1	-4	0.7
CCOc1cccc(N2CCC(Nc3ccnc(C#N)n3)CC2)n1	-2	0.33
C[C@H](NC(=O)c1ccc(COc2ccc3ccccc3c2)o1)c1nc2ccccc2[nH]1	-1	0.22
CC1CCCCN1CCCNC(=O)C(C1CCCC1)N1CCN(C(=O)CC(C)(C)C)CC1 (stereo unspecified)	14	-2.43
O=C(NC1CCN(C[C@H]2CCOC2)CC1)c1csc(-c2cnccn2)n1	-9	1.69
